Data from PubChem BioAssay AID652104 (National Center for Advancing Translational Sciences (NCATS), 2013).
Among all 410,000 compounds or so, about 7,200 (1.8%) were called active. The shares of active, inactive and inconclusive entries below differ from those in the screen. Calls come from the whole dose curve; as a rule, active = well fitted activation curve with a large enough effect; inconclusive = small, poorly fitted or top-dose-only effect, or another doubt; inactive = no such curve, though single readings can be large or run the other way. No potency is given beside an inconclusive call; the fits are too rough.
Potency is the fitted concentration of half-maximal effect; tags give direction and shape of the fitted curve.

Experiment: qHTS of TDP-43 Inhibitors; note: nearly all actives have a fitted effect of over 50% in size; for growth rescue (activation): % of control where 0% means no effect
Details: TDP-43 expressing yeast growth rescue, BacTiter-Glo, 24 h; growth rescue (activation): at 46.1 µM (top of the series) unless noted
Description: The goal of this project is to identify new chemical probes capable of reversing the toxicity associated with TDP-43 which is associated with frontotemporal lobar degeneration and amyotrophic lateral sclerosis. These compounds will provide a complementary approach to deciphering the tangled mechanisms of toxicity and protection that we have uncovered through genome-wide genetic screens and are beginning to uncover in a large-scale proteomics analysis with mass spectroscopy.
To this end, a miniaturized assay was developed to be screened against the Molecular Libraries Small Molecule Repository (MLSMR) to discover TDP-43 inhibitors. Please note that in the set-up this yeast-based assay compounds that inhibit as TDP-43, have a read-out as activators.
NIH Chemical Genomics Center [NCGC]
NIH Molecular Libraries Probe Centers Network [MLPCN]
Assay Submitter (PI): Susan Lindquist, Whitehead Institute/MIT
Dispense 2.5 microL yeast galactose medium per 1536-well plate, pin compound, dispense 2.5 microL TDP-43 expressing yeast in galactose medium at OD600=0.02 (pregrown in raffinose medium to mid-log phase) per well, incubate for 24 hr at 30 deg C, and cell growth will be measured using 5 microL of Bactiter/Glo reagent to entire plate and read using Luminescence Protocol in ViewLux.
For `Cn1c(=O)c2c(nc3n2CC(COc2ccc(Cl)cc2)O3)n(C)c1=O` (stereo not given), the Potency was inconclusive [activator, partial curve]. In the case of `C=CCc1cccc(/C=N/NC(=O)c2ccccc2OC)c1O`, the Potency is reported as active: 15.8 µM. With `CC(=O)Nc1cccc(NC(=O)c2c(-c3ccccc3)c(-c3ccccc3)nn(C)c2=O)c1` the Potency was “inactive”. With `C=Cc1c(C)c2cc3[nH]c(cc4nc(cc5nc(cc1[nH]2)C(C)=C5CCC(=O)O)C(CCC(=O)O)=C4C)c(C)c3C=C` the Potency was “inactive”. With `O=C(NCCC1=CCCCC1)c1ccc2c(c1)ncn2-c1ccc(F)c(F)c1` the Potency was “inactive”. In the case of `OC(c1ccccc1)c1nc(-c2cnc3ccccc3c2)cs1` (stereo not given), the Potency is reported as “inactive”. For `CCOc1ccc(CNC(=O)c2ccc(Sc3ccc(Cl)cc3)c(NC(C)=O)c2)cc1OC`, the Potency was inconclusive [activator, single point]. For `CC(=O)c1ccc(N2CCN(C(=O)COc3ccc(F)cc3)CC2)c(F)c1`, the Potency was inconclusive [activator, single point]. With `Cc1c(CC(=O)NCCc2ccc(Cl)cc2)c(=O)oc2c(C)c3occ(C(C)(C)C)c3cc12` the Potency was “inactive”. With `COc1cccc(C2=NOC(C(=O)NCc3ccccc3)C2)c1` (stereo not given) the Potency was inconclusive [activator, single point]. With `CCCOc1ccc(/C=C2/C(=O)ON=C2C)cc1OCC` the Potency was inconclusive [activator, partial curve]. With `C=Cc1ccc(COC(=O)c2cn(CC)c3nc(C)ccc3c2=O)cc1` the Potency was inconclusive [activator, single point]. In the case of `CC1CCN(S(=O)(=O)c2ccc(C(=O)OC(C)C(=O)N(C)C3CCCCC3)cc2)CC1` (stereo not given), the Potency is reported as “inactive”. For `CCOc1ccc(OCC)c(S(=O)(=O)n2ccnc2C)c1`, the Potency was inconclusive [activator, single point]. For `Cc1c(C(=O)N2CCN(S(=O)(=O)c3ccccc3)CC2)oc2ccc(Br)cc12`, the Potency was inconclusive [activator, single point]. In the case of `Cc1sc(NC(=O)c2ccco2)nc1-c1ccccc1`, the Potency is reported as inconclusive [activator, single point]. For `CCc1nonc1NC(=O)c1oc2ccccc2c1C`, the Potency was inconclusive [activator, partial curve, poor fit]. For `Cc1ccc(O)c(N=Nc2ccccc2)n1`, the Potency was active: 11.2 µM. With `O=C(CSc1nnc(Cc2ccccc2)o1)Nc1ccccc1` the Potency was inconclusive [activator, partial curve, poor fit]. In the case of `O=C(Nc1ccc(-c2n[nH]c(=S)o2)cc1)c1ccccc1`, the Potency is reported as inconclusive [activator, partial curve]. In the case of `COc1cccc2c1-c1c(O)cccc1C2=O`, the Potency is reported as inconclusive [activator, partial curve]. For `Cc1ccc(NS(=O)(=O)c2ccc(N3CCN(c4ccc(O)cc4)CC3)c([N+](=O)[O-])c2)c(C)c1`, the Potency was inconclusive [activator, single point]. In the case of `CCOC(=O)C1CCN(C(=O)COC(=O)c2c(C)c(CC)nc3ccccc23)CC1`, the Potency is reported as inconclusive [activator, partial curve, poor fit]. With `COc1ncnc2c1ncn2CCCNCc1ccc2c(c1)OCO2` the Potency was inconclusive [activator, full curve, poor fit]. With `Cn1nc(C(=O)NCc2ccc(Cl)cc2)c2c1-c1ccccc1SC2` the Potency was “inactive”. For `COc1ccccc1NS(=O)(=O)c1cc(-c2cnc(C3CC3)o2)ccc1C`, the Potency was inconclusive [activator, single point]. In the case of `Cc1ccc(S(=O)(=O)N(Cc2cccc(Cl)c2)C(=O)N2CCN(C)CC2)cc1`, the Potency is reported as “inactive”. In the case of `C[C@H]1CCC(=O)N(CCSc2ccc(Br)cc2)CC1`, the Potency is reported as inconclusive [activator, single point]. For `CCn1c(SCc2cccc(F)c2)nnc1-c1ccncc1`, the Potency was inconclusive [activator, partial curve]. For `COc1ccccc1NS(=O)(=O)c1cc(NC(=S)NCC2CCCO2)ccc1C` (stereo not given), the Potency was inconclusive [activator, partial curve]. In the case of `CC1Cc2ccccc2N1C(=O)CSc1ccccc1` (stereo not given), the Potency is reported as inconclusive [activator, single point]. In the case of `C/C(Cc1ccccc1)=N\NC(=O)C1CCCCC1`, the Potency is reported as “inactive”. In the case of `O=c1oc2cc(OCCO)ccc2c2c1CCCC2`, the Potency is reported as inconclusive [activator, full curve, poor fit]. In the case of `O=S1(=O)CCC(NC(=S)SCc2ccccc2Br)C1` (stereo not given), the Potency is reported as inconclusive [activator, single point]. In the case of `CCOc1ccc(C(=O)c2cc3ccc(O)cc3oc2=O)cc1`, the Potency is reported as inconclusive [activator, partial curve]. In the case of `CC1C/C(=C/c2ccncc2)C(=O)/C(=C/c2ccncc2)C1` (stereo not given), the Potency is reported as inconclusive [activator, single point]. For `CCOc1ccccc1CC1C(=O)Nc2ccc(Br)cc21` (stereo not given), the Potency was inconclusive [activator, single point]. With `O=C(OCc1ccccc1Cl)c1cc([N+](=O)[O-])ccc1N1CCOCC1` the Potency was active: 20 µM. For `CCC(C)Oc1cccc(C(=O)Nc2ccccc2N2CCOCC2)c1` (stereo not given), the Potency was inconclusive [activator, single point]. For `ClCCn1cnc2c(SCc3ccccc3)ncnc21`, the Potency was inconclusive [activator, single point]. With `CCCCCCCCCS(=O)(=O)N/N=C/c1cccc([N+](=O)[O-])c1` the Potency was “inactive”. For `COc1ccccc1-c1cc(C(=O)N2CCCCC2C)no1` (stereo not given), the Potency was inconclusive [activator, partial curve]. In the case of `COc1ccc(CNC(=O)c2nn(-c3ccccc3C)nc2CO)cc1`, the Potency is reported as inconclusive [activator, partial curve]. With `COc1ccc(OC)c(C(C)NC(=O)Cn2c(=O)cc(C)c3c(C)nn(-c4ccc(C)cc4)c32)c1` (stereo not given) the Potency was inconclusive [activator, full curve, poor fit]. With `CC[C@@]1(c2ccccc2OC)ON(c2ccccc2C(F)(F)F)C1=O` the Potency was active: 17.8 µM. For `CC(=O)N1CCc2c(sc(NC(=O)C3CCCCC3)c2C(N)=O)C1`, the Potency was inconclusive [activator, partial curve, poor fit]. With `CN(C)c1nc(-c2ccccc2)c2cnn(Cc3ccccc3)c2n1` the Potency was “inactive”. With `Cc1nc(CC(=O)c2ccc(O)c(C)c2O)cs1` the Potency was inconclusive [activator, single point]. For `CCCCCc1nc2c(=O)n(C)c3ccccc3c2o1`, the Potency was inconclusive [activator, single point]. With `O=S1(=O)N[C@@H](Cc2ccccc2)COc2cccc(N3CCC[C@H]3CO)c21` the Potency was inconclusive [activator, partial curve]. With `CN(C(=O)c1ccccc1C(=O)OCC(=O)Nc1ccc(OC(F)F)cc1)c1ccccc1` the Potency was inconclusive [activator, single point]. In the case of `O=C(COc1ccccc1)Nc1nonc1NC(=O)COc1ccccc1`, the Potency is reported as “inactive”. For `CCOC(=O)C1=C(Cc2ccc(OC)cc2)C(=O)c2ccccc2C1=O`, the Potency was active: 12.6 µM. With `COc1ccc(-c2ncncc2-c2ccccc2)c(O)c1` the Potency was inconclusive [activator, partial curve]. For `CN1c2ccccc2C(=O)C(=C2SCCCS2)S1(=O)=O`, the Potency was inconclusive [activator, single point]. For `COc1cc2c(C(=O)Nc3cc(OC)c(OC)c(OC)c3)cn(C)c(=O)c2cc1OC`, the Potency was inconclusive [activator, partial curve, poor fit]. In the case of `Cc1cc(C)cc(NC(=O)C2(c3ccccc3)CC2(Cl)Cl)c1` (stereo not given), the Potency is reported as inconclusive [activator, single point]. For `Cc1ccc2cc(C#N)c(N3CCN(C(=O)c4ccccc4)CC3)nc2c1`, the Potency was inconclusive [activator, single point]. With `CCOC(=O)NC(=O)COC(=O)c1ccc(Sc2ncn[nH]2)c([N+](=O)[O-])c1` the Potency was “inactive”. In the case of `O=C(O)C1CCCCC1C(=O)Nc1ccc2c(c1)OCCO2` (stereo not given), the Potency is reported as “inactive”. For `CCOc1ccccc1N1CCN(C(=O)/C=C/c2cccc([N+](=O)[O-])c2)CC1`, the Potency was active: 14.1 µM. With `Cc1ccc(-c2csc(NC(=O)CSc3nc(C)cs3)n2)cc1` the Potency was inconclusive [activator, single point]. For `Cc1cc(C)cc(Cn2c(C)c(C(=O)N(C)Cc3ccc(F)cc3)sc2=O)c1`, the Potency was active: 31.6 µM. In the case of `CCC(C)c1ccc2oc(-c3ccc(NC(=O)c4cc5ccccc5o4)cc3)nc2c1` (stereo not given), the Potency is reported as “inactive”. For `O=[N+]([O-])c1ccc(CSc2nnc(Cc3ccccc3)n2-c2ccc(F)cc2)cc1`, the Potency was inconclusive [activator, partial curve]. With `COc1ccc(C2c3cc(OC)c(OC)cc3CC(=O)N2c2ccc(C)cc2)cc1` (stereo not given) the Potency was “inactive”. With `Cc1cccc(Cn2c(=O)n3nc(-c4ccccc4)nc3c3ccccc32)c1` the Potency was inconclusive [activator, single point]. For `CC(C)COc1cccc(C(=O)N2CCN(C(=O)c3ccco3)CC2)c1`, the Potency was inconclusive [activator, partial curve, poor fit]. For `CN(CC(=O)Nc1ccccc1Cl)CC(=O)Nc1cccc2ccccc12`, the Potency was inconclusive [activator, partial curve]. For `CCc1ccc(NC(=O)c2cnn(-c3ccccc3)c2-n2cccc2)cc1`, the growth rescue (activation) was inactive: -6.31% [at 9.22 µM].
